Results taken from the RNAGym collection of RNA variant scans (doi:10.7554/elife.90254).
The source gives no read counts; variants with many changes may rest on few reads.

B1: LINE1-mini (parent)
chain: GGCAGAGCUCAACACAGCGUGGCAAAGUGGCUGUGGCUAGACUGCC

Variants of: B1
Assay: self-cleavage, relative activity (ratio to wild type); higher = more cleavage; in vitro, sequencing; the parent is a self-cleaving ribozyme

| Variant | self-cleavage |
| --- | --- |
| GGUAGAGCCCAACACAGCGUGGCAAAGGGUCUGUCGAUACACUGCC | 0.03 |
| GGCAGAGCUCAAAACAGCGUGGCAAAGUCGCUGUGGCUAGACUACC | 0.49 |
| GGCAGAGAUCAACACAGCGUGGCAAUGUGACUCUGGCUAGACUGCC | 0.11 |
| GGCAGAGCUCAAUACAGUGUGGCAAAGUGGCUGUGGAUAGACUGCC | 0.02 |
| GGCAGAGCGCAACACAGCGUGGCAAAAGGGCUGUGGCUAGACUGUC | 0.14 |
| GGCAGAGCAAAACACAGCGUGGCAAAGUGGCUGUGGCUAGAAUGCC | 0 |
| GGCAGAGCUCAACACAGCGGCACAAAGUGGCUGUGGCUAGACUGCC | 0.18 |
| GGCAGGGCUAGACACACCAUGGCAAAGUGGCUGUGGCUCGACUGCG | 0.01 |
| GGCAAAGCUCAAUACAGCGUGGCAAAGUAGCUGUGGCUAGCCUGCC | 0.05 |
| GGAAGAGCUCAACACAGCGUGGCAAAAUGGCUGUGGCAAGACCGCC | 0.06 |
| CGCAGAGCUAAACACGGCGUGGCAAAGUGGCUGUGGCUAGACUGCC | 0.01 |
| GGAAGAGCGCAACACAGCGUUGCAAAGUGGCUCUGGCUAGACUGCC | 0.02 |
| GGCAGAGCUCAACACAGAGUGGCAAAGUGGCUGUGGCUAGAUUUCC | 0.02 |
| GGCAGAACUCAACACAGCCUGGCAAAGUGGCUGUGGCUUGACUGCC | 0.33 |
| GGCAGCGCUCAACAAAGCGUUGCAAAGUGGCUGUGGCUAGACUGCG | 0.03 |
| AGCAGAGCUAAACACAGAGUGGCAAAGUGGCUGUGGCUAGACUGCC | 0.12 |
| GGCAGAGAUCAACACGUCGUGGCAAAGUGGCUGAGGCUAGACUGUC | 0.11 |
| UGGAGAGAUCAACACAGCGUGGCAAAGUGGCUUUGGCUAGACUGCC | 0.15 |
| GGCAGAGCUCAACACAGCGUUGCAAAGUGGCUGUGACUAGAAUGCC | 0.1 |

| Variant | self-cleavage |
| --- | --- |
| GGAAGAGCUCAACACAGCGUGGCAAAGUGGCUUUGGCUAGAUUGCC | 0.25 |
| GGCAGAGCUCAACAGAGCGUGGCGAAGUGGCUGUGGCUAGAUUGCC | 0.02 |
| CGCAGAGCUCAACACAGCGUGGCAAAGUGUCUGUGGCUAGACUGAC | 0.71 |
| GGCAGAGCUCAACACAGCGUGCCAAAGUGGCUGUGGCUAGACUACA | 0.02 |
| GGCAGAGCUCAACACAGCGUGGCAAAGUUGCUGUGGUUGGAGUGCC | 0.03 |
| CGCAAAGCUCAACACAGCGUGGCGAAGUGGCUUUGGCUAGACCGCC | 0 |
| GGCAGCGCCCCACACAGCGUGGCAAAGUGGCUGUGGCUAGACUGCC | 0.05 |
| GGCAGAGCUCAACACAUCGUGGCAAAGUGGCUUUGGCUAGACUUCC | 0.01 |
| GGCAGAGCUCAACACAGCUUAGCAAAGUGGCUGUGGCUAGACUGCU | 0.97 |
| GGCAGAGCUAAUGAAAACGUGGCAAAGUGGCUGUGGCUAGACUGCC | 0.01 |
| GGCAGAGCUCAACACAGCGUGACAAAGUGUCUGUGGCUAGAAUGCC | 0.06 |
| GGCGGAGCUCAACACAGCGUGGCAAGGUGGCGGUGGCUAGACUGCC | 0.01 |
| GGCAGAGCCCAACACAGCAUGCCAAAGAGGCUGUGGCUAGACUGCC | 0.02 |
| GGCAGAGCUCAAUACAGCGUGUCAAACUGGUUGUGGCUAGACUGCC | 0.03 |
| GGCAGACCUCAGCACAGCGUGGCAAAGUGGCUGUGGCUAAACUGCC | 0.04 |
| GGGAGAGCUAAACACAGCGUGGCAAAGUGGCUGUGGCUAGACUCUC | 0.03 |
| AGCAGAGCUCAACACAGCGUGGCAAAGUGGAUGCGGCCAGACAGCC | 0.02 |
| GGCUGAGCUCAACACAGCGUGGGAAAUUGGCUGUGGCUAGACUGCC | 0.04 |
| GGCUGACCUCAAUACAGCGUGGAAAAGUGGCUGUGGCUAGACUCCC | 0.05 |

| Variant | self-cleavage |
| --- | --- |
| UGCCGAGCUCAACACAUCGUGGCAAAGUGGCUGUGGGCAAACUGCC | 0.01 |
| AGCAGAGCACAACGCAGCGUGGCAAAGUGGCUGUGGCUAGACUACC | 0.32 |
| UGCAGAGCGUAACACAGCAUGGCAAAGUGGCUGUGUCUAGUCUGCC | 0.02 |
| GUCAGAGCUCAACCCAGCGUGGCAAAGUGUCUGCGGUUAGACUGCC | 0.01 |
| GGCAGAGAUCGUCACAGCAUGGCAAAGUGGCUGUGGCUAGACUGCC | 0.03 |
| GUCACAGCUCAACACAGCGUGGCUAAGUGGGUCUGGCUAGACUGCG | 0.02 |
| CGCAGAGUUCAACACAGGGUGGGAAAGUGGCGGUGGCUAGACUGCC | 0.04 |
| GGCAGAGCUCAACACAGCGUGGCAAACUGGCUAUGGCUAGAAUGCC | 0.08 |
| GGCAGAGCACCACACAGCGUGGCAAACUGGCUGUGGCUAGACUGCC | 0.05 |
| GGCAGAGCUCAACACAGCGUGGCAAAGUGGCAGUGGCUAGAGUACC | 0.31 |
| GGCUGAGCUCAACACAACGUGGCAAAGUUGCUGUGGCUAGACUGCC | 0.07 |
| GGCAGAGCUCAACACAGCCUGGCAAAGAGGCUGUGGCGAGAAUGCC | 0.01 |
| CGCAGAGCUCAAUACAGCGUGGGAAAGUGGCUUUGGCUAGACUGCC | 0 |
| GGCAGAGGUCAUCACAGCGUGGCAAAGUGGCUGUGGAUAGACUGCC | 0.05 |
| GGCAGAGCUCAACACAGCGUGGGAAAGUGGCUGUGGCUAGAUUGCU | 0.07 |
| GGCAGAGCUCGACACAGCGUGGCAGAGUGGCUGUGACUAGACUGCC | 0.01 |
| GGCAGAGCUCAACACAACAUGGCAAAGUGGCGGUGCCGAGACUGCC | 0.02 |
| GGCAGUUCUCAACACAGCGUGGCAAAGUGGUUGUGGCUAGACUGCC | 0.03 |
